Article PMC8211563
These are yes or no findings as the source states them, for the method shown. In cells and extracts the contact can be indirect. Some entries that bind do so weakly or less than the wild type. For some of these results: Tags and fused reporters may be left off the sequences shown.

Sequences of proteins named here, by UniProt entry; tags and fusion partners are left off.
UniProt Q16665: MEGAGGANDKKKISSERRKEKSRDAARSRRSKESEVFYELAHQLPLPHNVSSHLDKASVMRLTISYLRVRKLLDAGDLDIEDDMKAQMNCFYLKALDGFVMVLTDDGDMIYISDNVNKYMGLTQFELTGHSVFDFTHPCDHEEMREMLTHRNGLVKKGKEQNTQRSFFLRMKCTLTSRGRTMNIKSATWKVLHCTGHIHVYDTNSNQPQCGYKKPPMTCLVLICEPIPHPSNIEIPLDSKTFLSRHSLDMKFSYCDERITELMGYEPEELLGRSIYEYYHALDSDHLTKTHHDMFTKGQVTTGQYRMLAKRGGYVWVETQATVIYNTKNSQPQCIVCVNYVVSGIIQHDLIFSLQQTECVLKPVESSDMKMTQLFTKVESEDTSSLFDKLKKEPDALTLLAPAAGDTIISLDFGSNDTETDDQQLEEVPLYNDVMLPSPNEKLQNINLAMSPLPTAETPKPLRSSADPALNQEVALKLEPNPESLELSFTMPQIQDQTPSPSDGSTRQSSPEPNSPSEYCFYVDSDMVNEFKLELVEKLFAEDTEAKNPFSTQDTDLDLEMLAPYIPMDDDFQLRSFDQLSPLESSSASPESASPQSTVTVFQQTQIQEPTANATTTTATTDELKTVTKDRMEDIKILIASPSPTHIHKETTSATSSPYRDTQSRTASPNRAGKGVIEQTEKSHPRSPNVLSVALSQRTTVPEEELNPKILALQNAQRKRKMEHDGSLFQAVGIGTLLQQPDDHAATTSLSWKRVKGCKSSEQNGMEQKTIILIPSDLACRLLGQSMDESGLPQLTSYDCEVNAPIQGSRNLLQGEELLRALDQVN
UniProt Q09472: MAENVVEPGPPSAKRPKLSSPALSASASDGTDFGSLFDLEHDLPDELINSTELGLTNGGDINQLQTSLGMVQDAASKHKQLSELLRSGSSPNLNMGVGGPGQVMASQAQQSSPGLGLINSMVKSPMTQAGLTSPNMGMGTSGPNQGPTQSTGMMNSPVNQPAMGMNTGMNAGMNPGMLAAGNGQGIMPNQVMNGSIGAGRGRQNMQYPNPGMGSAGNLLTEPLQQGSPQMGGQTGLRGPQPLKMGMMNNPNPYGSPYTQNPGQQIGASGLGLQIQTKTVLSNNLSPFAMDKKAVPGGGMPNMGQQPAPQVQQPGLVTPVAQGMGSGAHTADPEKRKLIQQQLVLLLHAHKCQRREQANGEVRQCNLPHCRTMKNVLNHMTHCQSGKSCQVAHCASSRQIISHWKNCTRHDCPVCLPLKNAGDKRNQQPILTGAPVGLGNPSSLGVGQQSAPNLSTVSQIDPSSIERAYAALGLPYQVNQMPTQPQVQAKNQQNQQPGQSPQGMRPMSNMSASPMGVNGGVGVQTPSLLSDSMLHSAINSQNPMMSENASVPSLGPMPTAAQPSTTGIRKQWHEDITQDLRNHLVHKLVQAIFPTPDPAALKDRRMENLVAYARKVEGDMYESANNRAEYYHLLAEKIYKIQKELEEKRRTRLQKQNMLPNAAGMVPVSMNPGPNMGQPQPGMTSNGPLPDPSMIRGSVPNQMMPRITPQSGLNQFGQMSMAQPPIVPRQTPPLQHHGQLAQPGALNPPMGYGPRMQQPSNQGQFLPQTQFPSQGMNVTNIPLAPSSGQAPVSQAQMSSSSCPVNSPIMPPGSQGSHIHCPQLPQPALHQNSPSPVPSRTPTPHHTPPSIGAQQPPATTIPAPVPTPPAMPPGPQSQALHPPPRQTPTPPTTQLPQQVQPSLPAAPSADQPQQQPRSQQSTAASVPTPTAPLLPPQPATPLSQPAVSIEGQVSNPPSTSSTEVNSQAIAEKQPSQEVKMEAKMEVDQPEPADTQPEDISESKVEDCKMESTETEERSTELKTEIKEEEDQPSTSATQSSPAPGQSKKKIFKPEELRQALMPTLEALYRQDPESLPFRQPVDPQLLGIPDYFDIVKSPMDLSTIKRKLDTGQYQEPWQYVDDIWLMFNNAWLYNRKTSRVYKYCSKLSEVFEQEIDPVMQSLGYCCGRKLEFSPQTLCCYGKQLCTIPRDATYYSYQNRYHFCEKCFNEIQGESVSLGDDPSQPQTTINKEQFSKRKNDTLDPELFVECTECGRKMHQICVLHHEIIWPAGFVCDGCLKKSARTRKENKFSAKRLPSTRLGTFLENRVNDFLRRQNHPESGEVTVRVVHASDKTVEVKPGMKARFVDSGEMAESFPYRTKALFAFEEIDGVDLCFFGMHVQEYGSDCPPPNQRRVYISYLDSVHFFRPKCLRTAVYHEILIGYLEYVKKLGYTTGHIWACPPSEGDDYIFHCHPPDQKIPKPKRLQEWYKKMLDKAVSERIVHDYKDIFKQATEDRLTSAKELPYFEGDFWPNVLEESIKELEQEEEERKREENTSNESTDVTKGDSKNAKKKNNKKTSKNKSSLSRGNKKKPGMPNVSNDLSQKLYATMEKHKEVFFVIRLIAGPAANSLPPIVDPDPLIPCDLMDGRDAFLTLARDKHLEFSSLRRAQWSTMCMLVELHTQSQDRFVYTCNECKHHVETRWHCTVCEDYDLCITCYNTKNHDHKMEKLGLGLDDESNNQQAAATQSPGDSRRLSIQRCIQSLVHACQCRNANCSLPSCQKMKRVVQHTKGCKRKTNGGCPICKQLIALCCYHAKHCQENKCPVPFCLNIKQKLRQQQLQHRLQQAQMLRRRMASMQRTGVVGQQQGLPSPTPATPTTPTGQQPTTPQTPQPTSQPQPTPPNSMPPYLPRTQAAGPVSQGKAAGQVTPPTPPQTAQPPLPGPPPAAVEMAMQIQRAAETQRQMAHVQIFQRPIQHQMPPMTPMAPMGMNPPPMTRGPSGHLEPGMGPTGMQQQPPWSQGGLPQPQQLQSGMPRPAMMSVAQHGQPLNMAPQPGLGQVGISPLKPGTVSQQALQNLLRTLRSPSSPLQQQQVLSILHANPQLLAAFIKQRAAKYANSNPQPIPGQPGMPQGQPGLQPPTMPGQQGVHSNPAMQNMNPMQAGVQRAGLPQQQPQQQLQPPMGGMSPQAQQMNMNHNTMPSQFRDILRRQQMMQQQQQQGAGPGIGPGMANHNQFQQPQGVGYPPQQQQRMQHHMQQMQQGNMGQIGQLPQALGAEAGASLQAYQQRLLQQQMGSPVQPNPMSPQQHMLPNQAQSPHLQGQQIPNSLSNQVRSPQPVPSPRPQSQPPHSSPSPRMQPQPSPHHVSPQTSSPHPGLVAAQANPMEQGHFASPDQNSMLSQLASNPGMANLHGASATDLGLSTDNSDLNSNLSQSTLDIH
UniProt P27540: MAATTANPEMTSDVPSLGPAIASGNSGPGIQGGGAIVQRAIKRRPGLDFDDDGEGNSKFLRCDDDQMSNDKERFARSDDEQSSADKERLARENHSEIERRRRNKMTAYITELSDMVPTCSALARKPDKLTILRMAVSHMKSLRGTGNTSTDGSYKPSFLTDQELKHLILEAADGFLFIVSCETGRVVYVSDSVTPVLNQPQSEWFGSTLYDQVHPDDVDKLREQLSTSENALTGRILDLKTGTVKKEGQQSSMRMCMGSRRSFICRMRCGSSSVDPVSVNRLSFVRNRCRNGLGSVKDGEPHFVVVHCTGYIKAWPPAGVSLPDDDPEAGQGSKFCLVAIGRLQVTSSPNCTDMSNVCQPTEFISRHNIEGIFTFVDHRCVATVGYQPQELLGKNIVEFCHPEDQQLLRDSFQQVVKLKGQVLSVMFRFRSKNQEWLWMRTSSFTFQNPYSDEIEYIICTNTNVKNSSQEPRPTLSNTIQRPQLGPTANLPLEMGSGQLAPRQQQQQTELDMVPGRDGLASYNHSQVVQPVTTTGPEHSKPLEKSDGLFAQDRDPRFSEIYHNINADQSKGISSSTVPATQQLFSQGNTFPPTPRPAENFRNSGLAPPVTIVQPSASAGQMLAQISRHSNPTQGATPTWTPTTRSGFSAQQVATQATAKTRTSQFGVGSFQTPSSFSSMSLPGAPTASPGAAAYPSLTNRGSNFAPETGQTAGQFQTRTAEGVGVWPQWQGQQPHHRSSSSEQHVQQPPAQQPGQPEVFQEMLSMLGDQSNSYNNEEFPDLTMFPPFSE
UniProt Q92793: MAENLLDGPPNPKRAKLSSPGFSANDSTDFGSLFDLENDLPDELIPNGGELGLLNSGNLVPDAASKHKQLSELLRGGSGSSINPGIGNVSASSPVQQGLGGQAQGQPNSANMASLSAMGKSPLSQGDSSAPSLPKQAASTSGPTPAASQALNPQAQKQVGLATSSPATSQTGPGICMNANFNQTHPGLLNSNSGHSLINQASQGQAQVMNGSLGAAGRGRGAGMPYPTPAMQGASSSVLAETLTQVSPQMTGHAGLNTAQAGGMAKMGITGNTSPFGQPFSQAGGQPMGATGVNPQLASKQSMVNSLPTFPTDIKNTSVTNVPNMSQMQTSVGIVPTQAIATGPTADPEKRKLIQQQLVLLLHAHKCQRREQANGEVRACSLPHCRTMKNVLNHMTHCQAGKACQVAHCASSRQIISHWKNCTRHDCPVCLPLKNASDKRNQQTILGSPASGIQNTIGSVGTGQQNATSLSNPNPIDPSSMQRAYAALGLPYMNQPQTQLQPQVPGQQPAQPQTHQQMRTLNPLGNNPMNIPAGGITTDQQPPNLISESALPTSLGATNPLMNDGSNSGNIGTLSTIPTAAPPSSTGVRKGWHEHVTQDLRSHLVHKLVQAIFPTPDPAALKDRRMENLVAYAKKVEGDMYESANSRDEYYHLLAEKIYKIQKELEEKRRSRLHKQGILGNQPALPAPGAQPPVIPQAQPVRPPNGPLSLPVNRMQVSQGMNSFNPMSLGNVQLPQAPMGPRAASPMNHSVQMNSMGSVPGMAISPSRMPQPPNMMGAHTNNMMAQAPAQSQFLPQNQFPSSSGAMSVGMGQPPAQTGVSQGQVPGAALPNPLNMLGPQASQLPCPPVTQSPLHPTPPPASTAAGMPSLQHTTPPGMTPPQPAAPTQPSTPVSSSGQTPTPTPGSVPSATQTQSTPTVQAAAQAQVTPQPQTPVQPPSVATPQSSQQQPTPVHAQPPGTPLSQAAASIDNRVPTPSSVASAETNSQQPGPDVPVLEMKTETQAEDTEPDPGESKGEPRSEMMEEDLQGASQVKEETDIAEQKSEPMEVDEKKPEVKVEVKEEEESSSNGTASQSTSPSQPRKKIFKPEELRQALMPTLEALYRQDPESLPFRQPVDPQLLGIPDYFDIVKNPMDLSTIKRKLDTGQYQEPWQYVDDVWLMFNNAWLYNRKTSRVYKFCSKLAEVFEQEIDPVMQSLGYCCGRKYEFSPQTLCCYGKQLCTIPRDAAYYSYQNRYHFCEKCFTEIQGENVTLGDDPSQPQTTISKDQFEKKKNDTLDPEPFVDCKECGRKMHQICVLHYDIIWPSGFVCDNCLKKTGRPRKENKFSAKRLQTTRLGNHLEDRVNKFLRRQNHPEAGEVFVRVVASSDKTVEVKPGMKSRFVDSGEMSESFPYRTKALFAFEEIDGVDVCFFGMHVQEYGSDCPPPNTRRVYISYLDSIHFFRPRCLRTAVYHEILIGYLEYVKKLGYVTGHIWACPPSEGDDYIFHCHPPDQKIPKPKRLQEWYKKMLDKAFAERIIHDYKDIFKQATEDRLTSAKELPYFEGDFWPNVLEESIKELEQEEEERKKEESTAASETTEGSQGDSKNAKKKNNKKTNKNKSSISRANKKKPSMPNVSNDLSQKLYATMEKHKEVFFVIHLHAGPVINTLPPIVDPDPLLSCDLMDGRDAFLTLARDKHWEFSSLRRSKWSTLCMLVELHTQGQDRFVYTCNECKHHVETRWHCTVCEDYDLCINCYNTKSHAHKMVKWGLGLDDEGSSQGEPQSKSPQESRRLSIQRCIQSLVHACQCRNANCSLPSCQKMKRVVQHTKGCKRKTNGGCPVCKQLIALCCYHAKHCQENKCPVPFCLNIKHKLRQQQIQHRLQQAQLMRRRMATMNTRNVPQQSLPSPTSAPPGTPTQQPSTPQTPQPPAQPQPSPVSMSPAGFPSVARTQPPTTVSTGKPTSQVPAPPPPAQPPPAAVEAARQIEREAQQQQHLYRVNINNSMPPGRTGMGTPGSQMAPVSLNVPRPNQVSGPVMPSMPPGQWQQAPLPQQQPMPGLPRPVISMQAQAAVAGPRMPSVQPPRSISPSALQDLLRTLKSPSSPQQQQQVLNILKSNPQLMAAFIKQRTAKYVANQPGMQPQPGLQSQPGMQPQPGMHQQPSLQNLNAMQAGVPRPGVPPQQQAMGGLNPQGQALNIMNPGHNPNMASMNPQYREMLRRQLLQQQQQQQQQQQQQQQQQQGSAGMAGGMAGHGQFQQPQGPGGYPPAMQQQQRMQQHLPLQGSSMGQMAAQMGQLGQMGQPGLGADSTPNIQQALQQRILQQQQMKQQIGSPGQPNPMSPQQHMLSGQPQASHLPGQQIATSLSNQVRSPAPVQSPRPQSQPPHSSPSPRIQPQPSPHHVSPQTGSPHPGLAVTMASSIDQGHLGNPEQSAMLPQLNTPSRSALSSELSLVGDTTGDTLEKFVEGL

What was measured:
HA-tagged NONO (human) = biological target: T1, HA-tagged NONO (human) (UniProt Q15233); experiment: co-IP; HepG2 transfected with HA-tagged NONO for 24 h, then hypoxia (1% O2) or normoxia for 24 h; IP with anti-HA antibody, western blot; IgG as negative control
T1 sequence: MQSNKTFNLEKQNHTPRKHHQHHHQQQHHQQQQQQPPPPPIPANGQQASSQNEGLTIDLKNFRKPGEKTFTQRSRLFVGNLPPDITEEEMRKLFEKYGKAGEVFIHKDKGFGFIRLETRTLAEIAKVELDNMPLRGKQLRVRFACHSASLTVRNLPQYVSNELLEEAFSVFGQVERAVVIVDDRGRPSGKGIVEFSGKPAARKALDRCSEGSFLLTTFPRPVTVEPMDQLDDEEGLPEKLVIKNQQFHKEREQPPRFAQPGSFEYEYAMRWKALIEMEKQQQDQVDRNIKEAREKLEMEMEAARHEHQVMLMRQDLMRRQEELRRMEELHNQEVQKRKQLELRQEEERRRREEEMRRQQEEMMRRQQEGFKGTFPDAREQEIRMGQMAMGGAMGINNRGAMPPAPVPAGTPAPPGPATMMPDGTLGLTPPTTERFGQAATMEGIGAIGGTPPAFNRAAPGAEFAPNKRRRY

[1] = biological target: T2, PSPC1 in HepG2 cells (PLA) (human (endogenous in HepG2)) (UniProt Q8WXF1); experiment: proximity ligation; PLA in HepG2 cells, DBHS proteins with HIF-1α, HIF-1β or HIF-2α
T2 sequence: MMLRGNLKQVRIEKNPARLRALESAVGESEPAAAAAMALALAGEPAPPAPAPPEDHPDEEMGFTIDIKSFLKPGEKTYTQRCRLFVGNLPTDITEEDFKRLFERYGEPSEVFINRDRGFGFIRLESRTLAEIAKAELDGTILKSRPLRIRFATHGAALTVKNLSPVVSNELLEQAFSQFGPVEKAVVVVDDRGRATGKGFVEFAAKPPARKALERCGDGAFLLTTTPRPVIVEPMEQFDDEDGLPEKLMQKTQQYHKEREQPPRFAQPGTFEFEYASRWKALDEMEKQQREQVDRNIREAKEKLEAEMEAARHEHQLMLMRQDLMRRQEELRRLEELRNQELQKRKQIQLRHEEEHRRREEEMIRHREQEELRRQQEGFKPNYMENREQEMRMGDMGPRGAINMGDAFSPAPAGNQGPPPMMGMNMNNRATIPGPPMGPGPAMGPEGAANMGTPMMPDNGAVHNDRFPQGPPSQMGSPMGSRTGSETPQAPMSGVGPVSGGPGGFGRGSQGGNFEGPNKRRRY

[2] = biological target: T3, SFPQ in HepG2 cells (PLA) (human (endogenous in HepG2)) (UniProt P23246); experiment: as above
T3 sequence: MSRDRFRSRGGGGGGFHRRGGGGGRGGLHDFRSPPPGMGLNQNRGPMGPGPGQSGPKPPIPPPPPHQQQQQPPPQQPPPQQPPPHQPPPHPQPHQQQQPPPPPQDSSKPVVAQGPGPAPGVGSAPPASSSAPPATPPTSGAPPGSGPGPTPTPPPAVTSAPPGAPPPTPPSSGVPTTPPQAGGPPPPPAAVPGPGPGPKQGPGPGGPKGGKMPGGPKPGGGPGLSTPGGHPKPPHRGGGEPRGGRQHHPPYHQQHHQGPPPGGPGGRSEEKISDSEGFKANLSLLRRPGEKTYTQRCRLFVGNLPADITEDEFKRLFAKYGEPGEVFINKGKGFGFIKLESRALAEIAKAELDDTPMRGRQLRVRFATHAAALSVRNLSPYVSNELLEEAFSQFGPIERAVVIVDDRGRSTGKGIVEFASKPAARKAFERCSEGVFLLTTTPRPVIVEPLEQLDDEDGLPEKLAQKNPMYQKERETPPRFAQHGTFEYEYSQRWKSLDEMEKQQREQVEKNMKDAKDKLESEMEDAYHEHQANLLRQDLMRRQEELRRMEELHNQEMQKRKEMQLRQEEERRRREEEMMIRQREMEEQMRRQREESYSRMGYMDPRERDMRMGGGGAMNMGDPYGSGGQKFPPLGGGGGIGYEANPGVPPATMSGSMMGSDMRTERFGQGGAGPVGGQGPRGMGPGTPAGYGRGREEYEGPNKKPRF

[3] = biological target: T4, p54nrb/NONO (54 kDa nuclear RNA- and DNA-binding protein/Non-POU-domain-containing octamer binding protein), endogenous (human (endogenous in Hep3B, HepG2)) (UniProt Q15233); experiment: proximity ligation; in situ PLA on Hep3B cells under normoxia or hypoxia
T4 sequence: T1 sequence

[4] = biological target: HIF-2α, endogenous (human (endogenous in Hep3B, HepG2, SMMC-7721)) (UniProt Q99814); experiment: proximity ligation; PLA in SMMC-7721 cells in the presence or absence of NONO
HA-tagged HIF-2α = HA-tagged HIF-2α (UniProt Q99814); experiment: co-IP; HepG2 transfected with HA-tagged HIF-2α for 48 h, lysates incubated with HA-tagged beads, immunoblot of endogenous p300; with or without NONO; IgG as negative control
HA-tagged PSPC1 = biological target: T5, HA-tagged PSPC1 (UniProt Q8WXF1); experiment: co-IP; HepG2 co-transfected with HA-tagged DBHS plasmids and Flag-tagged HIF-1α or HIF-2α for 48 h; IP with anti-HA antibody, western blot; IgG as negative control (for the HIF-1β panel no HIF-1β plasmid is told)
T5 sequence: T2 sequence

HA-tagged SFPQ = biological target: T6, HA-tagged SFPQ (UniProt P23246); experiment: as above
T6 sequence: T3 sequence

[5] = biological target: HIF-1α, endogenous (human (endogenous in Hep3B, HepG2, Huh7)) (UniProt Q16665); experiment: co-IP; Huh7 cells with NONO knockout or not, 1% O2 for 24 h; IP with anti-HIF-1α antibody, western blot; IgG as negative control
[6] = biological target: HIF-1α, endogenous (human (endogenous in Hep3B, HepG2, Huh7)) (UniProt Q16665); experiment: proximity ligation; PLA in Hep3B cells in the presence or absence of NONO
[7] = biological target: T7, deletion mutant NONO (aa1-274) (human) (UniProt Q15233); experiment: pull-down; lysates of HepG2 transfected with Flag-tagged HIF-1α or HIF-2α for 48 h, incubated with fragments of NONO in GST pull-down assays; only the target purified
T7 sequence: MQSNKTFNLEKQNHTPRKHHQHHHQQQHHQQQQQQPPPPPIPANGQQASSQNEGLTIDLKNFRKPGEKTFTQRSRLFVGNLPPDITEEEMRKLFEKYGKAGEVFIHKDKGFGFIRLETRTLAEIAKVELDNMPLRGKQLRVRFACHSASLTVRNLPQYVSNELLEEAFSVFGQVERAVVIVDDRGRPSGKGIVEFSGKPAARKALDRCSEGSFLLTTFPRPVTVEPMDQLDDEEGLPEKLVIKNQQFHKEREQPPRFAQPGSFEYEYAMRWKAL

| Substance | binding (HA-tagged NONO (human)) | binding [1] | binding [2] | binding [3] | binding [4] | binding (HA-tagged HIF-2α) | binding (HA-tagged PSPC1) | binding (HA-tagged SFPQ) | binding [5] | binding [6] | binding [7] |
| --- | --- | --- | --- | --- | --- | --- | --- | --- | --- | --- | --- |
| p300, endogenous (from UniProt Q09472 1-2414) | binds |  |  | binds | binds | binds |  |  |  |  |  |
| HIF-1β, endogenous (from UniProt P27540 1-789) | binds | binds | binds | binds |  |  | binds | binds |  |  |  |
| HIF-1α, endogenous (from UniProt Q16665 1-826) | binds | binds weakly | binds weakly | binds |  |  |  |  |  |  |  |
| Flag-tagged HIF-2α (from UniProt Q99814 1-870) |  |  |  |  |  |  | no binding | binds |  |  | no binding |

Next, values leading:

| binding (HA-tagged NONO (human)) | binding [1] | binding [2] | binding [3] | binding [4] | binding (HA-tagged HIF-2α) | binding (HA-tagged PSPC1) | binding (HA-tagged SFPQ) | binding [5] | binding [6] | binding [7] | Substance |
| --- | --- | --- | --- | --- | --- | --- | --- | --- | --- | --- | --- |
| binds | no binding | binds | binds |  |  |  |  |  |  |  | HIF-2α, endogenous (from UniProt Q99814 1-870) |
| binds |  |  | binds |  |  |  |  | binds | binds |  | CBP, endogenous (from UniProt Q92793 1-2442) |
|  |  |  |  |  |  | binds weakly | binds weakly |  |  | no binding | Flag-tagged HIF-1α (from UniProt Q16665 1-826) |
